In paper PMC10892871 (Viruses, 2024):

Test system: wild type B.1 SARS-CoV-2 strain
Format: cell-based

SMILES | IC50 Fold Reduction (plus RDV 0.015 μM) | IC50 Fold Reduction (plus RDV 0.03 μM) | IC50 Fold Reduction (plus RDV 0.06 μM) | IC50 Fold Reduction (plus NRM 0.025 μM) | IC50 Fold Reduction (plus NRM 0.05 μM) | IC50 Fold Reduction (plus NRM 0.1 μM)
CC(C)(C)[C@H](NC(=O)C(F)(F)F)C(=O)N1C[C@H]2[C@@H]([C@H]1C(=O)N[C@H](C#N)C[C@@H]1CCNC1=O)C2(C)C [NRM, nirmatrelvir] | 1 fold | 8 fold | 33 fold |  |  | 
O=c1nc(NO)ccn1[C@@H]1O[C@H](CO)[C@@H](O)[C@H]1O [EIDD-1931] | 2 fold | 26 fold | > 26 fold | 1 fold | 11 fold | 88 fold

Where two headings read alike, the source gives them in different places.
